According to PubChem BioAssay AID1030 (National Center for Advancing Translational Sciences (NCATS), 2008):
Out of some 220,000 compounds screened, about 16,000 (7.3%) were called active. Inconclusive results, whose numbers are uncertain, are shown with a selection of clear calls. The call rests on the fitted dose curve; in most records, active means well fitted inhibition curve with a large enough effect (not every such curve was filed as active); inconclusive means small, poorly fitted or top-dose-only effect, or another doubt; inactive means no such curve, though single readings can be large or run the other way. No potency is given beside an inconclusive call; the fits are too rough.

Each molecule was assayed against Aldehyde dehydrogenase 1A1 (Homo sapiens) (UniProt P00352) (assay: qHTS Assay for Inhibitors of Aldehyde Dehydrogenase 1 (ALDH1A1)). Details: Purified ALDH1A1, NADH fluorescence, propionaldehyde substrate; series mostly up to 75.3 µM.
Chain of UniProt P00352 (P00352 whole entry, looked up): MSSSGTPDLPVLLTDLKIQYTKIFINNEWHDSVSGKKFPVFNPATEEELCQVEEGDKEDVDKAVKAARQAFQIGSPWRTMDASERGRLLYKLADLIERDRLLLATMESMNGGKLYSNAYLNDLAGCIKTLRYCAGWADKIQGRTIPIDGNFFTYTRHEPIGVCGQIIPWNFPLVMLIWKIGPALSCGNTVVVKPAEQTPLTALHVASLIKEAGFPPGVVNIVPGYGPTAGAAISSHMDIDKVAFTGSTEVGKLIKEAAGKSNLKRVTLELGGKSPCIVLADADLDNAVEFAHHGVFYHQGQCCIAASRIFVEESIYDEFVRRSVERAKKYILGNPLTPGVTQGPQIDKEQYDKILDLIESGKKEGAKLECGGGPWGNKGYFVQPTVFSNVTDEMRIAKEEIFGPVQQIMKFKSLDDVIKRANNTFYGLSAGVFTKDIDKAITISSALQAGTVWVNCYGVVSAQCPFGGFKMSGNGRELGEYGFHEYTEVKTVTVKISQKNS
Potency means the concentration at half of the fitted maximal effect; tags describe the fitted curve by direction and shape.

Row | SMILES | Potency
1 | CC12CCC(C(=O)N3CCCCC3)(CC1=O)C2(C)C (stereo not drawn) | inconclusive [inhibitor, single point]
2 | CC(=O)Nc1nc2nc(-c3ccccc3)cc(-c3ccccc3)n2n1 | inconclusive [inhibitor, partial curve]
3 | COc1ccc(COC(=O)N/N=C(\C)CC(=O)NCc2ccc(Cl)cc2)cc1 | inactive
4 | COc1ccc(Oc2c(C=O)c3ccccc3n2C)cc1 | inactive
5 | COc1ccc(NS(=O)(=O)CC23CCC(CC2=O)C3(C)C)cc1 (stereo not drawn) | active: 7.94 µM
6 | Cc1nc(NC(=O)C23CC4CC(CC(C4)C2)C3)sc1Cc1ccc2c(c1)OCO2 | inactive
7 | O=C(NCCC1=CCCCC1)N[C@@H](Cc1ccccc1)C(=O)O | inconclusive [inhibitor, single point]
8 | COc1ccc(CC2(CO)CCN(C(C)Cc3ccc(Cl)cc3)CC2)cc1 (stereo not drawn) | inactive
9 | c1ccc(Nc2nc(CSc3ncn[nH]3)cs2)cc1 | inconclusive [inhibitor, single point]
10 | Cn1c(=O)c(Cc2ccccc2)c(O)c2ccccc21 | inconclusive [inhibitor, single point]
11 | COC(=O)COc1cccc2c(=O)n(CC(=O)Nc3ccc4c(c3)OCCO4)ccc12 | inconclusive [inhibitor, single point]
12 | COc1ccc(C(=O)CSc2nn3c(=O)c(C(C)(C)C)nnc3s2)cc1 | active: 0.398 µM
13 | COc1cccc(C(=O)OCC(=O)Nc2cc(C)c(C)cc2[N+](=O)[O-])c1 | inconclusive [inhibitor, full curve]
14 | COc1ccc(-c2cc(CS(=O)(=O)c3ccccc3)on2)cc1 | inconclusive [inhibitor, single point]
15 | CC(Oc1cccc(Cl)c1)C(=O)NCCCCc1ccccc1 (stereo not drawn) | inconclusive [inhibitor, single point]
16 | N/C(=N\NC(=O)c1sccc1OCc1ccc(Cl)cc1Cl)c1ccccn1 | inactive
17 | COc1ccc(C(=O)NC2=C(C#N)CCC2)cc1OC | inactive
18 | O=c1c2c3c(sc2nc2n1CCCCC2)C(O)CCC3 (stereo not drawn) | inactive
19 | Brc1ccc2c(c1)C(C1=NCCN1)c1ccccc1CS2 (stereo not drawn) | inactive
20 | O=C(O)CC(NC(=O)COc1ccccc1)c1cccc([N+](=O)[O-])c1 (stereo not drawn) | inactive
21 | O=C(CCN1C(=O)c2ccccc2C1=O)Nn1cnnc1 | inactive
22 | CCC(Sc1nc2cc3c(cc2c(=O)n1Cc1ccco1)OCO3)C(=O)NCCOC (stereo not drawn) | active: 2.24 µM
23 | Oc1ccccc1C=Nc1ccccc1-c1nc2ccccc2[nH]1 | inconclusive [inhibitor, partial curve]
24 | Cn1c(NNC(=O)c2cccc3ccccc23)cc(=O)n(C)c1=O | inactive
25 | Cc1cccc(C(=O)N2CCN(c3ccc([N+](=O)[O-])c(NCc4ccco4)c3)CC2)c1 | inconclusive [inhibitor, partial curve]
26 | O=C(NCC1CCCO1)c1ccc2nc(N3CCCCC3)sc2c1 (stereo not drawn) | inconclusive [inhibitor, single point]

Row | SMILES | Potency
27 | Cc1ccc(CN2CCc3[nH]c(=O)[nH]c(=O)c3C2)cc1 | inconclusive [inhibitor, partial curve]
28 | Nc1ccccc1C(=O)NC1CCCCNC1=O (stereo not drawn) | inconclusive [inhibitor, partial curve]
29 | CCOc1ccc(C2CC(=O)NC(SC)=C2C#N)cc1 (stereo not drawn) | inconclusive [inhibitor, partial curve]
30 | COc1ccc(CNC(=O)/C=C/c2ccccc2[N+](=O)[O-])cc1 | inconclusive [inhibitor, single point]
31 | CCOC(=O)c1ccc(Nc2cnc3ccccc3n2)cc1 | inconclusive [inhibitor, partial curve]
32 | CC(Cl)C(=O)c1ccc2c(c1)CCN2C(=O)C1CC1 (stereo not drawn) | active: 1.41 µM
33 | CCOC(=O)C1=C(N)N(c2cc(S(=O)(=O)N3CCOCC3)ccc2Cl)C(=O)C1 | active: 14.1 µM
34 | COc1cc2c(cc1NC(=O)CC1SC(N3CCCC3)=NC1=O)oc1ccccc12 (stereo not drawn) | inactive
35 | COc1ccc(/C=N/NC(=O)CN2CCSCC2)c(OC)c1 | inconclusive [inhibitor, single point]
36 | O=C1C2C(C(=O)N1c1ccncc1)C1C=CC2C12CC2 (stereo not drawn) | inconclusive [inhibitor, single point]
37 | CCNC(=O)COC(=O)c1ccc(-c2nc3ccccc3s2)s1 | inconclusive [inhibitor, partial curve]
38 | NS(=O)(=O)c1ccc(NS(=O)(=O)c2ccc(NC(=S)Nc3ccccc3)cc2)cc1 | inconclusive [inhibitor, single point]
39 | COc1cccc(N2CCN(C(=S)NCCc3ccccc3)CC2)c1 | inactive
40 | CCOC(=O)c1cc(C#N)c(Oc2ccccc2)nc1-c1ccccc1 | inconclusive [inhibitor, single point]
41 | CC(=O)NCC(=O)OCC(=O)N1c2ccccc2Sc2ccccc21 | active: 25.1 µM
42 | CCOC(=O)C1=C(C)N(CC(C)C)C(=O)C1 | inconclusive [inhibitor, single point]
43 | CC(=O)c1nccs1 | inconclusive [inhibitor, single point]
44 | CCC(=O)Nc1cc(-c2nn(C)c(=O)c3ccccc23)ccc1N1CCCCC1 | inconclusive [inhibitor, single point]
45 | CCCCOCCCNC(=O)c1ccc2c(c1)OCO2 | inactive
46 | Oc1c(C(Nc2nccs2)c2ccc(C(F)(F)F)cc2)ccc2cccnc12 (stereo not drawn) | inactive
47 | COC(=O)CCn1c(C)cc(C(=O)COc2ccccc2C(N)=O)c1C | inactive
48 | COc1ccccc1C(=O)Nc1ccc(C(=O)c2ccccc2)cc1 | inconclusive [inhibitor, single point]
49 | C=CCSc1nnc2nc3c(nn12)c1cc(C)ccc1n3CC=C | inconclusive [inhibitor, full curve]
50 | CCOc1ccc(C(C)=O)cc1N1C(=O)C2C3C=CC(C3=C(C)C)C2C1=O (stereo not drawn) | inactive
51 | CC1=CC(=C(C#N)c2nc3ccccc3s2)C=C(C)N1Cc1ccco1 | inactive
52 | CCn1c(C)cc(/C=C2\NC(=O)N(CC(=O)Nc3ccc(F)cc3)C2=O)c1C | inactive

Row | SMILES | Potency
53 | CC(C)(C)CC(=O)NCc1cccs1 | inactive
54 | CC1CN(c2cc(=O)n(-c3ccccc3)c(=O)[nH]2)CC(C)O1 (stereo not drawn) | inconclusive [inhibitor, single point]
55 | Cc1cccc2c1CC(C)(C)NC2=C(C#N)C#N | inconclusive [inhibitor, single point]
56 | COc1cccc(OCc2nnc(-c3cccs3)o2)c1 | inconclusive [inhibitor, single point]
57 | c1cc2c(cc1Nc1nc(-c3ccc4c(c3)OCO4)cs1)OCCO2 | active: 17.8 µM
58 | c1ccc(-c2nn3c(Cn4nnc5ccccc54)nnc3s2)nc1 | active: 3.16 µM
59 | CC1CC(C)CN(C(=O)CSc2nnc(CSc3ncccn3)n2C)C1 (stereo not drawn) | inactive
60 | N#C/C(=C\c1ccc(O)c(O)c1)C(=O)N1CCCC1 | inconclusive [inhibitor, single point]
61 | COc1ccc(NC(=O)c2cccc(S(=O)(=O)N3CCc4ccccc43)c2)cn1 | active: 3.16 µM
62 | CCOC(=O)c1ccc(N=C2C(=S)N(c3ccc(C(=O)OCC)cc3)C(=N)N2/N=C/c2ccccc2)cc1 | active: 2 µM
63 | CCCC1S/C(=N/N=C/c2ccc(OC)cc2)N(Cc2ccccc2)C1=O (stereo not drawn) | inconclusive [inhibitor, partial curve, poor fit]
64 | Cc1cc(C)c2cc3c(N)c(C(=O)Nc4c(C)[nH]c(=O)[nH]c4=O)sc3nc2c1 | inactive
65 | O=C(O)CNS(=O)(=O)c1ccc(C2CCCCC2)cc1 | inactive
66 | CCOC(=O)C1CSC(CC(=O)Nc2ccc(OC(F)(F)F)cc2)C(=O)N1 (stereo not drawn) | inactive
67 | CSc1ccccc1NC(=O)c1ccccc1C | inactive
68 | COc1ccc(C(=O)NCCc2nnc(SCC(=O)Nc3ccccc3F)n2C)cc1 | inconclusive [inhibitor, single point]
69 | CC12CCC(C(=O)NCc3ccc4c(c3)OCO4)(CC1=O)C2(C)C (stereo not drawn) | inconclusive [inhibitor, partial curve]
70 | COc1ccccc1NC(=O)Oc1ccc(NC(=O)c2ccco2)cc1 | inconclusive [inhibitor, single point]
71 | CCN1C(=O)[C@@H]2[C@H]3C(=CC[C@@H]2C1=O)C1(OCCCO1)[C@H]1O[C@@H]1[C@H]3O | active: 1.78 µM
72 | O=C(CSc1nnnn1-c1ccc(F)cc1)Nc1ccc(N2CCOCC2)c(Cl)c1 | inconclusive [inhibitor, partial curve]
73 | Cc1cccc(CSC2=NCCN2C(=O)c2ccc(S(=O)(=O)N(C)C)cc2)c1 | inconclusive [inhibitor, single point]
74 | N#Cc1sc2nc(-c3cccs3)cc(-c3ccc(F)cc3)c2c1N | inconclusive [inhibitor, single point]
75 | O=C(c1coc2ccc(O)cc12)C1CC1 | active: 2.82 µM
76 | COc1cc(/C=C2/C(=N)N3C=CSC3=NC2=O)ccc1OCCCOc1cc(C)ccc1C | inconclusive [inhibitor, partial curve]
77 | Cn1cccc1C(=O)OCC(=O)NC(=O)NC1CCCCC1 | inactive
78 | O=[N+]([O-])c1cccc(-c2nc(-c3cccs3)c(-c3cccs3)[nH]2)c1 | inconclusive [inhibitor, partial curve]
